Laboratory results reported in PubChem BioAssay AID1346428 (National Center for Advancing Translational Sciences (NCATS), 2018).
Hit rate of the full screen: of about 48,000 compounds, about 1,200 (2.5%) were called active. Another 2% or so got no clear call; they are omitted.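 The calls were made as follows: active = activation of at least 60% and not above a set upper limit (about 1 call in 100 departs from these limits); inconclusive = activation of 40% to 60%, or above that upper limit; inactive = activation under 40%.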 The list shows a part of the results.

Target: Probable G-protein coupled receptor 32 (Homo sapiens) (UniProt O75388)
Assay: qHTS for Agonists of Human Resolvin D1 Receptor DRV1; also: 0% is about no effect
Conditions: CHO-K1 GPR32 beta-arrestin PathHunter luminescence, 90 min; at 76.9 µM; stronger effect = higher value; zero percent set by DMSO-only wells
Summary of the method: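 Agonism was scored by beta-Gal fragment complementation (chemiluminescent read, 1 h detection at ambient temperature) reporting beta-arrestin binding to GPR32 in engineered CHO-K1 cells. Compound treatment lasted 90 min at 37 C, normalized to a DMSO basal control.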

Sequence of UniProt O75388 (O75388 whole entry, looked up): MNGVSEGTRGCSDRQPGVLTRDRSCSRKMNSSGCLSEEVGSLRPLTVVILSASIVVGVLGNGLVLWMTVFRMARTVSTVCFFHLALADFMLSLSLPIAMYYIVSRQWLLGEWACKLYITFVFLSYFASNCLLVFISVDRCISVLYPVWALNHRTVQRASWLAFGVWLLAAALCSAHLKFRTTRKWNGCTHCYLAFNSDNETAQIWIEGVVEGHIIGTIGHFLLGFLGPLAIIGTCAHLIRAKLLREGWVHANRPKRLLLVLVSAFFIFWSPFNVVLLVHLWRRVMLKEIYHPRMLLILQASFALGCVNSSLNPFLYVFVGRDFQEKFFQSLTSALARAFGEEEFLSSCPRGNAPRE

| SMILES | activation |
| --- | --- |
| Cc1ccc(N2CC(NC(=O)c3cc4ccccc4o3)CC2=O)cc1 (configuration not stated) | inactive: -13.5% |
| CCc1ccc(Cn2c(CNS(=O)(=O)c3ccc(C)c(C)c3)nc3cccnc32)cc1 | inactive: -28.7% |
| CCCCNC(=O)c1cc2n(n1)CCCN(Cc1ccc(C)cc1)C2=O | inactive: 7.46% |
| CCOc1ccc(C(=O)Nc2ccc3oc(-c4ccc5ccccc5c4)nc3c2)cc1 | inactive: 2.14% |
| COc1ccc(NC(=O)Cn2c(=O)n(Cc3ccccc3)c(=O)c3sc4ccccc4c32)cc1 | inactive: -0.398% |
| CC1=C(C(=O)Nc2ccccc2C)C(c2ccccn2)n2ncnc2N1 (configuration not stated) | inactive: 19.1% |
| CCC(=O)C1=C(c2ccc(C)cc2)N(C(=O)CC)n2c(nnc2C2CCCCC2)S1 | inactive: -39.1% |
| CC(=O)N1CCc2cc(S(=O)(=O)NC(CC(C)C)C(=O)Nc3cc(C)cc(C)c3)ccc21 (configuration not stated) | inactive: -4.15% |
| Cc1cccc(C)c1NC(=O)CS(=O)(=O)c1nc(-c2ccc(Cl)cc2)cn1-c1ccccc1 | inactive: -27.5% |
| CCOc1ccc(Cn2c(=O)sc3ccccc32)cc1 | inactive: -3.83% |
| Cc1cccn2c(=O)c3cc(C#N)c(=O)n(-c4nnc(SCc5ccc(Cl)cc5)s4)c3nc12 | inactive: -3.7% |
| Cc1c(Cl)cccc1NC(=O)CCOc1ccccc1 | inactive: -1.71% |
| Cc1ccc(C)c(Cn2c(=O)c3c(nc4n3CCN4c3ccccc3)n(C)c2=O)c1 | inactive: -2.47% |
| Cc1ccc(NC(=O)CN2C(=O)COc3ccc(S(=O)(=O)NC4CCCC4)cc32)cc1N(C)C | inactive: 4.72% |
| Cc1cc(C)c2c(c1)c(C)cc1nnc(SCc3ccccc3C#N)n12 | inactive: -14.8% |
| CC1=C(C(=O)Nc2ccc(Cl)cc2)C(c2ccccc2)n2ncc(C(=O)Nc3ccccc3)c2N1 (configuration not stated) | inactive: -23.3% |
| Cc1ccc(C)c(-c2ccc(=O)n(Cc3c(F)cccc3Cl)n2)c1 | inactive: 11.9% |
| COc1ccc(NC(=O)CSc2nc(-c3cccc(C)c3)[nH]c2-c2ccccc2)cc1OC | inactive: -9.87% |
| CC(=O)N1CCc2c(sc3c2c(=O)n(CCc2ccccc2)c(=O)n3Cc2ccccc2C)C1 | inactive: -14.5% |
| CCSc1ncc(Cl)c(C(=O)Nc2sc3c(c2C(=O)NCCCOC)CCCC3)n1 | inactive: -5.39% |
| CCN(CC)S(=O)(=O)c1ccc2c(c1)c(=O)c(C(=O)N1CCN(c3cc(Cl)ccc3C)CC1)cn2C | inactive: -1.17% |
| CC(C)Sc1ncc(Cl)c(C(=O)Nc2ccc(S(=O)(=O)N3CCCCC3)cc2)n1 | inactive: -48% |
| CC(C)c1noc(-c2ccccc2OCC(=O)Nc2cccc([N+](=O)[O-])c2)n1 | inactive: -21.9% |
| O=C(Oc1ccccc1F)c1nc(SCc2ccc(F)cc2)ncc1Cl | inactive: -4.41% |
| CCOc1ccc(Nc2c(S(=O)(=O)c3ccccc3)cnc3ccc(F)cc23)cc1 | inactive: -44.8% |
| Cc1ccc(NC(=O)C2CCN(S(=O)(=O)c3cccc4nonc34)CC2)cc1C | active: 101% |

| SMILES | activation |
| --- | --- |
| COc1cc(C2CC(=O)Oc3c2c(=O)[nH]c2ccccc32)cc(OC)c1OC (configuration not stated) | inactive: 38.1% |
| Cc1ccc(-c2cc3nc(-c4ccccc4)cc(C(F)(F)F)n3n2)cc1 | inactive: -4.79% |
| CCOc1ccc(-c2c(C)nn3c(C)c(C(=O)Nc4cc(C)cc(C)c4)cnc23)cc1OCC | inactive: -0.715% |
| CC(=O)N1CCc2cc(Br)cc(S(=O)(=O)CCC(=O)N3CCN(c4ccccc4Cl)CC3)c21 | inactive: -2.22% |
| COc1ccc(-c2nc3scc(CCNS(=O)(=O)c4ccc5c(c4)OCCO5)n3n2)cc1 | inactive: 17.1% |
| Cc1ccc(CN(C(=O)COc2cc(C)c(Cl)c(C)c2)c2ccccn2)o1 | inactive: 13.1% |
| CCN1CCc2c(sc(-n3cccc3)c2C(C)NC(=O)Nc2ccc(Br)cc2)C1 (configuration not stated) | inactive: -23.8% |
| COc1ccc(NC(=O)Cn2cc(S(=O)(=O)c3ccccc3)c(=O)c3cc4c(cc32)OCO4)cc1 | inactive: -9.64% |
| Cc1cccc(N2CCN(C(=O)C3CCN(S(=O)(=O)c4c(C)noc4C)CC3)CC2C)c1 (configuration not stated) | active: 108% |
| COc1ccc(N(Cc2cccs2)C(=O)c2ccc(OC)c(Cl)c2)cc1 | inactive: -19.6% |
| CCCC(=O)OCc1cnc(C)c2oc(=O)c(C(=O)Nc3cccc(C(F)(F)F)c3)cc12 | inactive: 2.32% |
| CCC(=O)Nc1ccccc1-c1nc2ccccc2n(CC(=O)Nc2ccccc2OC)c1=O | inactive: -9.11% |
| CCCS(=O)(=O)c1c(S(=O)(=O)CCC)c2cc(C(C)(C)C)ccn2c1C(=O)c1ccccc1 | inactive: -16.6% |
| Cc1c(C(=O)Nc2ccccc2)sc2nc(-c3cc4cc(Cl)ccc4oc3=O)[nH]c(=O)c12 | inactive: -3.31% |
| COc1cccc(N2CCN(C(=O)C3CCN(S(=O)(=O)c4c(C)noc4/C=C/c4ccccc4F)CC3)CC2)c1 | inactive: -15.4% |
| COC(=O)c1ccc(NC(=O)CC2C(=O)N(c3ccccc3)C(=O)N2Cc2ccc(F)cc2)cc1 (configuration not stated) | inactive: -15.9% |
| Cc1ccccc1C(=O)Nc1ccc2nc(N3CCCCC3)cc(C)c2c1 | inactive: -11.4% |
| COc1cccc(N2CCN(C(=O)c3cc4c(s3)-c3ccccc3OC4)CC2)c1 | inactive: -17.3% |
| CC(C)(C)C(=O)NCC(c1ccc2c(c1)OCO2)N1CCOCC1 (configuration not stated) | inactive: -8.79% |
| O=C(CSc1nnc(-c2cccs2)o1)Oc1ccccc1Cl | inactive: 9.07% |
| CCN(CC)C(=O)c1sc2c(c1C)c(=O)n(CCc1ccccc1)c(=O)n2Cc1cc(C)ccc1C | inactive: -31.8% |
| O=C(Cn1ccn(-c2ccc(F)cc2)c(=O)c1=O)Nc1ccc(F)cc1 | inactive: 0.816% |
| O=C(NCCc1ccc(Cl)cc1)c1ccc(CS(=O)(=O)c2ccc(Cl)cc2)o1 | inactive: -18.9% |
| Cc1cccc(C)c1NC(=O)C(NS(=O)(=O)c1cccs1)c1ccccc1 (configuration not stated) | inactive: -12% |
| O=C(Cn1ncc2c3ccccc3n(Cc3cccc(Cl)c3)c2c1=O)Nc1ccc(F)cc1F | inactive: -17.6% |
| COc1cc(CNC(=O)c2ccc3c(c2)c(C)c(C)n3Cc2cccc(C)c2)cc(OC)c1OC | inactive: -24.2% |
